# This is one part of the list.
# Legend:
# Assay in all cases: glycan array binding signal (z-score within array); higher = stronger binding
# Conditions in all cases: glycan notation: IUPAC condensed, linker removed
# [1] = molecular target: Neu5Ac(a2-3)Gal(b1-3)[Fuc(a1-4)]GlcNAc
# Procedure, shortened: (§1)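 Negative Z-scores can be read as non-binding. The Z-score is calculated within each array and then averaged across arrays of one protein sequence at different concentrations or buffers and across linkers. Arrays, 3228 in all, were curated from the Consortium for Functional Glycomics database and kept only where the protein sequence was available.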
# [2] = molecular target: Neu5Ac(a2-3)Gal(b1-3)[Fuc(a1-4)]GlcNAc(b1-3)Gal(b1-3)[Fuc(a1-4)]GlcNAc
# Procedure, shortened: as §1
# [3] = molecular target: Neu5Ac(a2-3)Gal(b1-3)[Fuc(a1-4)]GlcNAc(b1-3)Gal(b1-4)[Fuc(a1-3)]GlcNAc
# Procedure, shortened: as §1
# [4] = molecular target: Neu5Ac(a2-3)Gal(b1-3)[GlcNAc(b1-6)]GalNAc
# Procedure, shortened: as §1
# [5] = molecular target: Neu5Ac(a2-3)Gal(b1-3)[Neu5Ac(a2-6)]GalNAc
# Procedure, shortened: as §1
# [6] = molecular target: Neu5Ac(a2-3)Gal(b1-3)[Neu5Ac(a2-6)]GlcNAc(b1-3)[Fuc(a1-3)[Gal(b1-4)]GlcNAc(b1-6)]Gal(b1-4)Glc
# Procedure, shortened: as §1
# [7] = molecular target: Neu5Ac(a2-3)Gal(b1-3)]Neu5Ac(a2-3)Gal(b1-4)]GlcNAc
# Procedure, shortened: as §1
# Neu5Ac(a2-3)Gal(b1-4)Glc = molecular target: Neu5Ac(a2-3)Gal(b1-4)Glc
# Procedure, shortened: as §1
# [8] = molecular target: Neu5Ac(a2-3)Gal(b1-4)GlcNAc
# Procedure, shortened: as §1
# [9] = molecular target: Neu5Ac(a2-3)Gal(b1-4)GlcNAc(b1-2)Man
# Procedure, shortened: as §1
# [10] = molecular target: Neu5Ac(a2-3)Gal(b1-4)GlcNAc(b1-2)Man(a1-3)[GlcNAc(b1-4)][Neu5Ac(a2-3)Gal(b1-4)GlcNAc(b1-2)Man(a1-6)]Man(b1-4)GlcNAc(b1-4)GlcNAc
# Procedure, shortened: as §1
# [11] = molecular target: Neu5Ac(a2-3)Gal(b1-4)GlcNAc(b1-2)Man(a1-3)[Neu5Ac(a2-3)Gal(b1-4)GlcNAc(b1-2)Man(a1-6)]Man(b1-4)GlcNAc(b1-4)GlcNAc
# Procedure, shortened: as §1
# [12] = molecular target: Neu5Ac(a2-3)Gal(b1-4)GlcNAc(b1-2)Man(a1-3)[Neu5Ac(a2-3)Gal(b1-4)GlcNAc(b1-2)Man(a1-6)]Man(b1-4)GlcNAc(b1-4)[Fuc(a1-6)]GlcNAc
# Procedure, shortened: as §1
# [13] = molecular target: Neu5Ac(a2-3)Gal(b1-4)GlcNAc(b1-2)Man(a1-3)[Neu5Ac(a2-6)Gal(b1-4)GlcNAc(b1-2)Man(a1-6)]Man(b1-4)GlcNAc(b1-4)GlcNAc
# Procedure, shortened: as §1
# [14] = molecular target: Neu5Ac(a2-3)Gal(b1-4)GlcNAc(b1-2)[Neu5Ac(a2-3)Gal(b1-4)GlcNAc(b1-4)]Man(a1-3)[GlcNAc(b1-4)][Neu5Ac(a2-3)Gal(b1-4)GlcNAc(b1-2)[Neu5Ac(a2-3)Gal(b1-4)GlcNAc(b1-6)]Man(a1-6)]Man(b1-4)GlcNAc(b1-4)GlcNAc
# Procedure, shortened: as §1
# [15] = molecular target: Neu5Ac(a2-3)Gal(b1-4)GlcNAc(b1-2)[Neu5Ac(a2-3)Gal(b1-4)GlcNAc(b1-4)]Man(a1-3)[GlcNAc(b1-4)][Neu5Ac(a2-3)Gal(b1-4)GlcNAc(b1-4)Man(a1-6)]Man(b1-4)GlcNAc(b1-4)GlcNAc
# Procedure, shortened: as §1
# [16] = molecular target: Neu5Ac(a2-3)Gal(b1-4)GlcNAc(b1-2)[Neu5Ac(a2-3)Gal(b1-4)GlcNAc(b1-6)]Man(a1-6)[Neu5Ac(a2-3)Gal(b1-4)GlcNAc(b1-2)Man(a1-3)]Man(b1-4)GlcNAc(b1-4)GlcNAc
# Procedure, shortened: as §1
# [17] = molecular target: Neu5Ac(a2-3)Gal(b1-4)GlcNAc(b1-2)[Neu5Ac(a2-3)Gal(b1-4)GlcNAc(b1-6)]Man(a1-6)[Neu5Ac(a2-3)Gal(b1-4)GlcNAc(b1-2)Man(a1-3)][GlcNAc(b1-4)]Man(b1-4)GlcNAc(b1-4)GlcNAc
# Procedure, shortened: as §1
# [18] = molecular target: Neu5Ac(a2-3)Gal(b1-4)GlcNAc(b1-3)Gal
# Procedure, shortened: as §1
# [19] = molecular target: Neu5Ac(a2-3)Gal(b1-4)GlcNAc(b1-3)Gal(b1-3)GlcNAc
# Procedure, shortened: as §1
# [20] = molecular target: Neu5Ac(a2-3)Gal(b1-4)GlcNAc(b1-3)Gal(b1-4)GlcNAc
# Procedure, shortened: as §1
# [21] = molecular target: Neu5Ac(a2-3)Gal(b1-4)GlcNAc(b1-3)Gal(b1-4)GlcNAc(b1-2)Man(a1-3)[Neu5Ac(a2-3)Gal(b1-4)GlcNAc(b1-3)Gal(b1-4)GlcNAc(b1-2)Man(a1-6)]Man(b1-4)GlcNAc(b1-4)GlcNAc
# Procedure, shortened: as §1
# [22] = molecular target: Neu5Ac(a2-3)Gal(b1-4)GlcNAc(b1-3)Gal(b1-4)GlcNAc(b1-3)Gal(b1-4)GlcNAc
# Procedure, shortened: as §1
# [23] = molecular target: Neu5Ac(a2-3)Gal(b1-4)GlcNAc(b1-3)Gal(b1-4)GlcNAc(b1-3)Gal(b1-4)GlcNAc(b1-2)Man(a1-3)[Neu5Ac(a2-3)Gal(b1-4)GlcNAc(b1-3)Gal(b1-4)GlcNAc(b1-3)Gal(b1-4)GlcNAc(b1-2)Man(a1-6)]GalNAc
# Procedure, shortened: as §1
# [24] = molecular target: Neu5Ac(a2-3)Gal(b1-4)GlcNAc(b1-3)Gal(b1-4)GlcNAc(b1-3)GalNAc
# Procedure, shortened: as §1
# [25] = molecular target: Neu5Ac(a2-3)Gal(b1-4)GlcNAc(b1-3)Gal(b1-4)GlcNAc(b1-3)[Neu5Ac(a2-3)Gal(b1-4)GlcNAc(b1-3)Gal(b1-4)GlcNAc(b1-6)]GalNAc
# Procedure, shortened: as §1
# [26] = molecular target: Neu5Ac(a2-3)Gal(b1-4)GlcNAc(b1-3)Gal(b1-4)GlcNAc(b1-6)[Gal(b1-3)]GalNAc
# Procedure, shortened: as §1
# [27] = molecular target: Neu5Ac(a2-3)Gal(b1-4)GlcNAc(b1-3)Gal(b1-4)[Fuc(a1-3)]GlcNAc
# Procedure, shortened: as §1
# [28] = molecular target: Neu5Ac(a2-3)Gal(b1-4)GlcNAc(b1-3)GalNAc
# Procedure, shortened: as §1
# [29] = molecular target: Neu5Ac(a2-3)Gal(b1-4)GlcNAc(b1-3)[Neu5Ac(a2-3)Gal(b1-4)GlcNAc(b1-6)]GalNAc
# Procedure, shortened: as §1
binder,measurement,setting,value
SP16665A-bot-344-23-344 (Bacteroides ovatus) (protein) SDNEFPDFDYQTVYFANQYGLRTIELGESEFVDNTLDNQHKMVIKAAWGGGYTNRNNVVINFKVDESLCDNLYFKDTDQPLVPMPASYYTLASDRIAIPKGQIMAGVEVQLTDDFFADEKSISENYVIPLLMTNVQGADSILQGKPVVENPVLTNAGDWSILPQNFVLYAVKYVNPWHGEYLRRGIDHATVAGTSKDIIRHEQFVENDEVVNISTKSMKDNLLTLKTKDESGKDISYTVRLSFAEDGSCTVHSGSQNVVVSGSGKFVSKGEKNSLGGKDRNAIYLDYTVNLTDNNIQLATKDTLVLRTRNVYGGKSLEVVRK,glycan array binding signal (z-score),[1],-0.073
same,glycan array binding signal (z-score),[2],-0.283
same,glycan array binding signal (z-score),[3],0.438
same,glycan array binding signal (z-score),[4],-0.391
same,glycan array binding signal (z-score),[5],-0.446
same,glycan array binding signal (z-score),[6],-0.697
same,glycan array binding signal (z-score),[7],-0.238
same,glycan array binding signal (z-score),Neu5Ac(a2-3)Gal(b1-4)Glc,0.997
same,glycan array binding signal (z-score),[8],-0.021
same,glycan array binding signal (z-score),[9],-0.249
same,glycan array binding signal (z-score),[10],-0.236
same,glycan array binding signal (z-score),[11],-0.552
same,glycan array binding signal (z-score),[12],-0.039
same,glycan array binding signal (z-score),[13],0.133
same,glycan array binding signal (z-score),[14],-0.001
same,glycan array binding signal (z-score),[15],-0.388
same,glycan array binding signal (z-score),[16],0.847
same,glycan array binding signal (z-score),[17],-0.44
same,glycan array binding signal (z-score),[18],-0.268
same,glycan array binding signal (z-score),[19],0.117
same,glycan array binding signal (z-score),[20],-0.729
same,glycan array binding signal (z-score),[21],0.704
same,glycan array binding signal (z-score),[22],-0.258
same,glycan array binding signal (z-score),[23],0.516
same,glycan array binding signal (z-score),[24],-0.51
same,glycan array binding signal (z-score),[25],-0.103
same,glycan array binding signal (z-score),[26],-0.214
same,glycan array binding signal (z-score),[27],0.411
same,glycan array binding signal (z-score),[28],0.718
same,glycan array binding signal (z-score),[29],-0.228

# — the supplement of paper PMC8728848
